# Read counts are not given, so values of variants with three or more changes are uncertain.
# B1: CPEB3 Ribozyme (parent)
# chain: UAACAGGGGGCCACAGCAGAAGCGUUCACGUCGCAGCCCCUGUCAGAUUCUGGUGAAUCUGCGAAUUCUGCUGUAUAUCUC
# Variants of: B1
# Assay: self-cleavage, relative activity (ratio to wild type); higher = more cleavage; in vitro, sequencing
# How it was run: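 Libraries of CPEB3 self-cleaving ribozyme mutants came from rounds of error-prone PCR and carried barcodes, which DNA sequencing matched to variants. In vitro transcription used T7 RNA polymerase at 37°C for 5 hours, with a further 15 min in DNase I before EDTA stopped the reaction; the ribozymes cleaved during both steps. The RNA was reverse transcribed with template switching and sequenced on Illumina. Relative activity is the cleaved/total read fraction of a variant divided by that of the unmutated ribozyme, averaged over three batches with at least 5 reads.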
row,Variant,self-cleavage
1,C34U G55A U60C C62U A65G U69A,0.41
2,C34U U41A U48C A64U,0.19
3,C34U U41A U49A U69C U80A,0.16
4,C34U U41C U80A,0.5
5,C34U U43C U69C,0.1
6,C34U U49C U54C,0.11
7,C34U U66C U80C,0.17
8,C34U U67C U72C G73U U80C,0.18
9,C34U U72C U80C,0.59
10,A35C A56G G61A U72C U78C,0.35
11,A35C A56G U58A A64U,0.15
12,A35C A56U A57G U69A A77G,0.15
13,A35C C38U U76A,0.56
14,A35C U41A U51A U54G C62A,0.18
15,A35C U41A U54G C62A,0.15
16,A35C U41C U60A U72C U74A,0.75
17,A35C U43C A47C,0.13
18,A35C U48C U66C U69A,0.34
19,A35C U51C U54C,0.67
20,A35C U51C U74A,1.16
21,A35C U54C C62U U69A U76G,0.12

row,Variant,self-cleavage
1,A35C U54C U58A,0.18
2,A35C U58C A64U U80C,0.15
3,A35C U72C U80C,1.22
4,A35G A45C A56G C62G,0.22
5,A35G A45C U51A,1.29
6,A35G A45G U51C A57G U67C,0.4
7,A35G A45G U58A G63A U67C U72C,0.1
8,A35G A45G U60C,1.43
9,A35G A45G U74C,1.27
10,A35G A45U A56G A57G U58A U67C U74C,0.28
11,A35G A45U C59A U69A U76C,0.16
12,A35G A45U U54C A65G U66C,0.3
13,A35G A45U U67A,0.25
14,A35G A47G A57G,1.2
15,A35G A47G A65U U76A,0.92
16,A35G A47U U74C,1.16
17,A35G A56G C59A,0.72
18,A35G A56G U74C,1.25
19,A35G A56U A64U U72A,0.55
20,A35G A57G A77G,1.28
21,A35G A57G U69C,1.13

row,Variant,self-cleavage
1,A35G A57G U74C,1.28
2,A35G A57G U80A,1.25
3,A35G A64G C68U,1.23
4,A35G A64G U67C U80A,0.74
5,A35G A64G U69C U78C,1.08
6,A35G A64U U69A U80C,0.54
7,A35G A65C U67C U72A U78C U80C,0.43
8,A35G A65G U74A,1.37
9,A35G C37G U41C A56G C59A C81U,0.17
10,A35G C37U A57G,1.25
11,A35G C38U U43C U49C G52A,0.75
12,A35G C38U U74C U80C,1.29
13,A35G C39A A56G,0.58
14,A35G C39U U48C,1.24
15,A35G C40U A56G,1.27
16,A35G C44A U66A U69C A75G U80C,0.25
17,A35G C44U A47G,0.74
18,A35G C50U A56G,1.45
19,A35G G36A A47G,0.88
20,A35G G42A C62U U72A,0.15
21,A35G G42C A75G,0.16

row,Variant,self-cleavage
1,A35G G46U G63A,0.87
2,A35G G52A A56G,1.24
3,A35G G52A A56U U58C,0.73
4,A35G U41A A47U U60C C62U G73U,0.07
5,A35G U41A A56G U58C C71A U74C U80C,0.05
6,A35G U41A C62U A64C,0.23
7,A35G U41A G53A,0.38
8,A35G U41A U72A,0.35
9,A35G U41A U80A,0.52
10,A35G U41C A57G A64G U67C U78G,0.57
11,A35G U41C U48A C71A,0.19
12,A35G U41C U51A A65C U78C,0.31
13,A35G U41C U60G,0.91
14,A35G U41C U76A,1.26
15,A35G U41G U51C,0.18
16,A35G U43A U51A U72C U76C,1.29
17,A35G U43A U51C A56G,1.38
18,A35G U43A U78C U80C,1.2
19,A35G U43C A47C U49A U80C,0.2
20,A35G U43C A47G U51C,1.2
21,A35G U43C A57G A65G U78C,0.72

# Reference: the RNAGym collection of RNA variant scans (doi:10.1093/nar/gkz1192)
